Laboratory results as given in PMC4336329 (PLoS ONE, 2015).
Hit rate of the full screen: of about 310,000 compounds, about 2,200 (0.71%) showed an effect of 50% or more. Effects have a minus sign here. The list shows a part of the results.

molecular target: human ether-à-go-go-related gene (hERG) potassium channel (human, UniProt Q12809); test: primary screen, population patch clamp on CHO cells stably expressing hERG
Sequence (Q12809 whole entry, looked up): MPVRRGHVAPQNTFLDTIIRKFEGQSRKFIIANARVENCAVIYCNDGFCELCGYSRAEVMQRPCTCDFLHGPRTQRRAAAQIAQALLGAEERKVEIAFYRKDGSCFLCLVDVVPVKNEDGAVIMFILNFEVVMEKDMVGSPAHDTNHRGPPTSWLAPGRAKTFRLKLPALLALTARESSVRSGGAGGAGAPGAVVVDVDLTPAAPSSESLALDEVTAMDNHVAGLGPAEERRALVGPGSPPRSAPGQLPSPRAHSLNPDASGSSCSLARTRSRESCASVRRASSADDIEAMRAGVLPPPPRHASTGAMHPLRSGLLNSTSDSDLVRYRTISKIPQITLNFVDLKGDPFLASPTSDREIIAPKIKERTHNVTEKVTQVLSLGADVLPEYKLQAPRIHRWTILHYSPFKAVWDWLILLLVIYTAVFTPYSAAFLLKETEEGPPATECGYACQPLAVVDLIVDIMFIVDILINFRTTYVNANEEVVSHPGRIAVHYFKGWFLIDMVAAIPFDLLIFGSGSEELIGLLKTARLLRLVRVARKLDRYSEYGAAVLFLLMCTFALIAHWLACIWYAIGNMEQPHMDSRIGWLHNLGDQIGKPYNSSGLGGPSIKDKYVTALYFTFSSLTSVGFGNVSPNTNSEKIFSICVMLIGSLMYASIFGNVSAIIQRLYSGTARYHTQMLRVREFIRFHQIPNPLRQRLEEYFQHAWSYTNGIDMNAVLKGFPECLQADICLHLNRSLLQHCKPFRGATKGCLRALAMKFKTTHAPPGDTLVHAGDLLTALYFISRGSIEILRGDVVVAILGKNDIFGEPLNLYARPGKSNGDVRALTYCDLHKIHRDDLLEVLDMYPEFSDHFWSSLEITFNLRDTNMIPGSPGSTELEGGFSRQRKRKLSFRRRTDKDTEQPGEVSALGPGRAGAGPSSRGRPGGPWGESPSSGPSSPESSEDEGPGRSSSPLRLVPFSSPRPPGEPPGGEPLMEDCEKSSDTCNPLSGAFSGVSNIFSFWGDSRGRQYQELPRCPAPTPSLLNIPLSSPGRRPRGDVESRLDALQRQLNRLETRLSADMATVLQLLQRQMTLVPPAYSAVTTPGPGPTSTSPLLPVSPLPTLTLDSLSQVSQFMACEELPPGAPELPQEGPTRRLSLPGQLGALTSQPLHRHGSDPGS

In order of rising “hERG current change (%, negative = inhibition) at 1uM” value:
1. COc1ccc(CCN(C)CCCC(C#N)(c2cc(OC)c(OC)c(OC)c2)C(C)C)cc1OC.Cl (centres unmarked)  -33.9%
2. COc1ccccc1/C=C/[C@@H]1C[C@H]2CN(Cc3cccc(Cl)c3)C(=O)[C@]23CCCN13  -17.3%
3. COC(=O)c1ccc(N2CCN(C(=O)c3ccccc3)CC2)c(NC(C)=O)c1  -14%
4. O=C(NC1CCCCC1)N1CCCC(CNS(=O)(=O)Cc2ccccc2)C1 (centres unmarked)  -4.2%
5. O=C(c1cnn2c(C(F)F)cc(-c3ccccc3)nc12)N1CCCc2ccccc21  -1.31%
6. CCN(CC)S(=O)(=O)c1ccc(N2CCCC2)c(NS(=O)(=O)c2ccc(OC)cc2)c1  0.351%
7. O=C(O)c1cccc(CSc2ncccn2)c1  0.666%
8. CC(=O)NCCC(=O)Nc1cc(S(=O)(=O)N2CCOCC2)ccc1Oc1ccc(F)cc1  0.698%
9. COC(=O)c1sc(NC(=O)CCCn2nc([N+](=O)[O-])cc2C)c(C(=O)OC)c1C  1.06%
10. CC(C)Oc1ccc(C(CC(=O)O)NC(=O)C2CCCCC2)cc1 (centres unmarked)  1.77%
11. Nc1c(C(=O)CCC(=O)O)oc2ccc(Cl)cc12  2.17%
12. COCCNC(=O)c1cccc(OC2CCN(Cc3ccccc3OCCO)CC2)c1  4.52%
13. COCCNC(=O)/C(C#N)=C/c1cccs1  4.96%
14. CCOC(=O)c1c(C)[nH]c(C)c1S(=O)(=O)NCCc1cccs1  5.32%
15. Nc1nc(SCC(=O)N2CCCC2)[nH]c(=O)c1NC(=O)c1ccco1  5.4%
16. COc1cc(NC(=O)Cn2c(=O)n(-c3cccc(C)c3)c(=O)c3c(C)c(C)sc32)cc(OC)c1  6.01%
17. S=c1[nH]nc(-c2cccnc2)n1Cc1ccccc1  6.79%
18. CC1CCCN(C2=C(NS(=O)(=O)c3ccc(Br)cc3)C(=O)c3ccccc3C2=O)C1 (centres unmarked)  6.8%
19. COc1ccc(CN(C)C(=O)c2ccccc2OCc2c(C)noc2C)cc1OC  6.99%
20. Cc1cc(C)c(NC(=O)CSc2ccc(-c3cccnc3)nn2)c(C)c1  7.63%
21. CC(N)Cc1cn(Cc2ccccc2)c2ccccc12.Cl (centres unmarked)  7.84%
22. CC(C)OC(=O)Cn1cnc2ccc(Br)cc2c1=O  7.88%
23. COc1ccc(NS(=O)(=O)Cc2ccccc2Cl)cn1  8.75%
24. COC(=O)N/N=C/c1ccc(-c2ccccc2Cl)o1  8.96%
25. OC(COc1ccccc1)CN1CCCC1 (centres unmarked)  9.18%
26. O=C(c1ccccc1[N+](=O)[O-])N1CCCC(C(=O)N2CCCCCC2)C1 (centres unmarked)  9.43%
27. CCCCNC(=O)c1ccc(-n2c(=S)[nH]c3ccccc3c2=O)cc1  9.48%
28. Cc1ccsc1CN(C(=O)c1ccccc1)C1CCS(=O)(=O)C1 (centres unmarked)  10.1%
29. Cc1cccc(CCNC(=O)c2cccc(NC3=NC4CS(=O)(=O)CC4S3)c2)c1 (centres unmarked)  10.6%
30. CCOC(=O)C1CC(c2ccc(Cl)cc2)=NNC1=O (centres unmarked)  10.6%
31. Cc1sc2nc(SCC(=O)NCc3ccco3)n(-c3ccccc3)c(=O)c2c1C  10.7%
32. O=C(Nc1ccc(NC(=O)c2cccs2)cn1)c1ccco1  10.7%
33. O=C(NCc1cccnc1)Nc1ccc(F)cc1F  11.1%
34. COc1ccc(C(CNC(=O)c2ccco2)N2CCOCC2)cc1 (centres unmarked)  11.8%
35. Cc1ccc(C(=O)Nc2c(N)nc(SCC(=O)Nc3cc(C)on3)[nH]c2=O)cc1  12.1%
36. COc1cccc(N2CC(O)=C(c3ccccc3)C2=N)c1  12.5%
37. CN(C)C(=O)NC(O)C(Cl)(Cl)Cl (centres unmarked)  12.6%
38. CCN(CC(=O)NCc1ccc(F)cc1)CC(=O)Nc1ccc(S(=O)(=O)N2CCCC2)cc1  13.2%
39. O=[N+]([O-])c1cc(S(=O)(=O)[O-])cc([N+](=O)[O-])c1NN(c1ccccc1)c1ccccc1.[K+]  13.9%
40. COc1ccccc1N(CC(=O)NC(C)(C)C)C(=O)CCC(=O)Nc1ccccn1  14.6%
41. NC(=O)c1ccsc1NC(=O)CSc1nnc(Nc2ccccc2)s1  15.7%
42. Cc1ccc(OCC(=O)N(Cc2cccs2)C2CCS(=O)(=O)C2)cc1C (centres unmarked)  17.5%
43. CCCN(CCC)CCNC(=O)C1CCCN(S(=O)(=O)c2ccc3c(c2)oc(=O)n3C)C1 (centres unmarked)  18.2%
44. O=C(NCCNC(=O)c1cccnc1)c1ccc(Br)cc1  29.6%
